Test results: patent US20240174760A1 (ZHEJIANG NANOMAB TECHNOLOGY CENTER, published 2024)

B1: NB-83 (Fc fusion)
heavy: QVQLVESGGGLVQPGGSLRLSCAASGSISSIYAMGWYRQAPGKQRELVAAITSDNSAFYRDSVKGRFTISRDNAKNTVYLQMDSLKVEDTAVYDCNVAPWGSYSPGPADIASWGQGTQVTVSS[human IgG1 Fc with changes not written out]
notes: also called NB-83 antibody; VHH-hIgG4
B2: NB-170 (Fc fusion)
heavy: QVQLVESGGGLVQPGGSLRLSCAASEFIFSISAMSWYRQAPGKVLELVSDITTDGNSFYADSMKGRFTISRDNAKNTMYLQMNILKSEDTAAYDCDVAPWGYHAPEVGSWGQGTLVTVSS[human IgG1 Fc with changes not written out]
notes: also called NB-170 antibody; VHH-hIgG4
B3: NB-216 (Fc fusion)
heavy: QVQLVESGGGLVQPGGSLRLTCAASGSIFSIYAMGWYRQAPGKQRELVAAVTSAGNTFYRDSVKGRFTISRDNAKSTVYLQMNSLKPEDTAVYDCNSAPWGSYSPGPADVSSWGQGTLVTVSS[human IgG1 Fc with changes not written out]
notes: also called NB-216 antibody; VHH-hIgG4
B4: NB-265 (Fc fusion)
heavy: EVQLVESGGGLVQPGESLRLSCAASGFTFSSSAMSWARQAPGKGLEWVSGIYSDGSTYYADSVKGRFTISRDNAKNTVYLQMNSLKPEDTAVYKCAVGAPLVYASYRPWGQGTLVTVSS[human IgG1 Fc with changes not written out]
notes: also called NB-265 antibody; VHH-hIgG4
B5: NB-34 (Fc fusion)
heavy: EVQLVESGGGLVQPGGSLRLSCAASGSIFSIYAMGWYRQAPGKQRELVAAVTSEGGTFYRDSVKGRFTISRDNAKNTVYLQMNSLKPEDTAVYQCNAAPWGSYHPQSDIFSWGQGTQVTVSS[human IgG1 Fc with changes not written out]
notes: also called NB-34 antibody; VHH-hIgG4
B6: NB-82 (Fc fusion)
heavy: EVQLVESGGGLVQPGGSLRLSCAASGSIFSIYAMGWYRQAPGKPRELVAAVTTEGSTFYRDSVKGRFTISRDNAKNAVYLQMNSLKPEDTAVYQCNAAPWGSYHPQTDIVSWGQGTQVTVSS[human IgG1 Fc with changes not written out]
notes: also called NB-82 antibody; VHH-hIgG4
B7: NB-122 (Fc fusion)
heavy: QVQLVESGGGLVQPGGSLRLSCAASGFTFSSSAMSWARQAPGMGLERVSSIYSDGSTYYPDSMKGRFTISRDNAKNTVYLQMNSLKPEDTAVYICAIGAPDPFDYSGWRRNLLGQGTQVTVSS[human IgG1 Fc with changes not written out]
notes: also called VHH-hIgG4
B8: NB-192 (Fc fusion)
heavy: QVQLVESGGGLVQPGGSLRLSCAASGFTFSSSAMSWARQAPGKGLERVSSIYSDGSTYYSDSMKGRFTISRDNAKNTVYLQMNSLKPEDTAVYYCAIGAPDPFDYSGWRRHLLGQGTLVTVSS[human IgG1 Fc with changes not written out]
notes: also called VHH-hIgG4

Molecular target: T1, mouse BCMA his tag (Acrobiosystems, BCA-M52H3) (mouse, UniProt O88472 1-49)
T1 construct: Bought protein; also called murine BCMA; not shown: his tag
T1 chain (looked up): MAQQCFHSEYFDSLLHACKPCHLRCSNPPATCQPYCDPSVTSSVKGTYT
Assay: ELISA on coated mouse BCMA his tag

Binder | binding result
B1 | no binding (tested: 2 µg/mL)
B2 | no binding (tested: 2 µg/mL)
B3 | no binding (tested: 2 µg/mL)

molecular target: T2, cynomolgus BCMA his tag (Acrobiosystems, BCA-C52H7) (cynomolgus, UniProt A0A2K5UD97 1-53); assay: ELISA on coated cynomolgus BCMA his tag
T2 construct: Bought protein; also called Cyno BCMA his tag; not shown: his tag

Binder | binding result
B1 | no binding (tested: 2 µg/mL)
B4 | no binding (tested: 2 µg/mL)
B5 | no binding (tested: 2 µg/mL)
B6 | no binding (tested: 2 µg/mL)
B7 | no binding (tested: 2 µg/mL)
B8 | no binding (tested: 2 µg/mL)
B2 | no binding (tested: 2 µg/mL)
B3 | no binding (tested: 2 µg/mL)

molecular target: T3, biotin-TACI (Acrobiosystems, TAI-H82F6) (human, UniProt O14836 2-166, limits assumed, biotin); assay: ELISA, antibody coated, biotin-TACI in solution
T3 construct: Bought protein; also called human TACI
T3 sequence (looked up): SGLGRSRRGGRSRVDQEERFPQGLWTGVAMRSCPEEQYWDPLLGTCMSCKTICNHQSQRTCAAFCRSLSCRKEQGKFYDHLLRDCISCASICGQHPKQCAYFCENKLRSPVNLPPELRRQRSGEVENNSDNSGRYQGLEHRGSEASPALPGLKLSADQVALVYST

Binder | binding result
B1 | no binding (tested: 4 µg/mL)
B4 | no binding (tested: 4 µg/mL)
B5 | no binding (tested: 4 µg/mL)
B6 | no binding (tested: 4 µg/mL)
B7 | no binding (tested: 4 µg/mL)
B8 | no binding (tested: 4 µg/mL)
B2 | no binding (tested: 4 µg/mL)
B3 | no binding (tested: 4 µg/mL)

molecular target: T4, biotin-BAFFR (Acrobiosystems, BAR-H5257) (human, UniProt Q96RJ3 7-71, limits assumed, biotin); assay: ELISA, antibody coated, biotin-BAFFR in solution
T4 construct: Bought protein; also called human BAFFR
T4 sequence (looked up): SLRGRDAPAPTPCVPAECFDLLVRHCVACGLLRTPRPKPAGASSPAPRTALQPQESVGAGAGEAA

Binder | binding result
B1 | no binding (tested: 4 µg/mL)
B4 | no binding (tested: 4 µg/mL)
B5 | no binding (tested: 4 µg/mL)
B6 | no binding (tested: 4 µg/mL)
B7 | no binding (tested: 4 µg/mL)
B8 | no binding (tested: 4 µg/mL)
B2 | no binding (tested: 4 µg/mL)
B3 | no binding (tested: 4 µg/mL)

Molecular target: T1, mouse BCMA his tag (Acrobiosystems, …)
Assay: ELISA on coated mouse BCMA his tag (+ = OD450 <= 1.0)

Binder | OD450 [od]
B4 | ≤ 1
B5 | ≤ 1
B6 | ≤ 1
B7 | ≤ 1
B8 | ≤ 1
